This is one part of the list. Rule as the data show it: active = 25% or less and inactive = the rest. Repeats are few or missing, and single values can be far off.
Legend:
[1] = tested on: Salmonella enterica serovar Typhimurium SL1344; experiment: bacterial growth OD600 after 18 h in MHB with 0.5 µg/mL polymyxin B; higher = more bacterial growth (less inhibition); conditions: 25 µM; polymyxin B 0.5 µg/mL; system: broth
Method: (§1)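 Secondary screen of the 553 primary hits at 25 µM. (i) S. Typhimurium SL1344 grown in Mueller-Hinton broth with 0.5 µg/mL polymyxin B, OD600 read after 18 h. (ii) SAFIRE assay: RAW 264.7 macrophages infected with S. Typhimurium sifB::gfp (MOI 30); compound added 2 h post-infection; cells fixed at 18 h; GFP-positive pixel fraction per macrophage imaged by confocal microscopy and expressed as % of DMSO control.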

[2] = tested on: Salmonella enterica serovar Typhimurium SL1344; experiment: intramacrophage bacterial GFP load (SAFIRE), percent of DMSO control (% of DMSO); higher = more intracellular bacteria (less inhibition); conditions: 25 µM; system: infected RAW 264.7 macrophages
Method: as §1
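For bacterial growth OD600 after 18 h in MHB with 0.5 µg/mL polymyxin B in this document: polymyxin B level opens the outer membrane while sparing the inner membrane, with novobiocin wells as reference growth inhibitor.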
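For intramacrophage bacterial GFP load (SAFIRE), percent of DMSO control in this document: compounds tested were the hits of an earlier 50 µM broth growth screen of a drug-like diversity library run with polymyxin B.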

SMILES	bacterial growth OD600 [1]	intramacrophage bacterial GFP load [2]
O=C1OCCN1CCNc1ccc(-c2nc(-c3cccc(Cl)c3)no2)cn1	-0.002	inactive: 298
CCOC(=O)C1CCCCN1C(=O)c1cn(C(c2ccccc2)c2ccccc2)nn1 (stereo unspecified)	0.068	inactive: 93.7
COc1ccccc1-c1cn2c(C(=O)N3CCCCC3c3ccccn3)csc2n1 (stereo unspecified)	0.005	inactive: 118
Cc1cccc(S(=O)(=O)N2CCCC(CO)(Cc3cccc(Cl)c3)C2)c1 (stereo unspecified)	-0.019	inactive: 41.6
CCC(C)Nc1ccc(-c2nc(CC(C)C)no2)cn1 (stereo unspecified)	0	inactive: 122
COc1cccc(C2(CC(=O)N(C)Cc3nc4ccccc4s3)CC(=O)N(C3CCCC3)C2=O)c1 (stereo unspecified)	-0.009	inactive: 112
COCCC1CCCCN1C(=O)CC1(c2ccc(-c3ccccc3)cc2)CC(=O)N(C2CC2)C1=O (stereo unspecified)	-0.014	inactive: 52.8
COCc1ccc(C(=O)N2CCCC(CCc3ccc(F)c(F)c3)C2)o1 (stereo unspecified)	0.004	inactive: 51.1
CC(C)CC(=O)C1CCCN(C(=O)CC2(c3ccc(-c4ccccc4)cc3)CC(=O)N(C)C2=O)C1 (stereo unspecified)	-0.03	inactive: 88.2
CC(C)CS(=O)(=O)c1ncc(CN(C)Cc2ccccc2)n1Cc1ccccc1	0.008	inactive: 73.8
COc1cc(C(=O)NCCC2=CC[C@H]3C[C@@H]2C3(C)C)ccc1OC1CCN(C(C)=O)CC1	0.003	inactive: 78.3
COCc1ccc(CN2CCCC(C(=O)Nc3ccccc3-c3ccc(OC)cc3)C2)o1 (stereo unspecified)	0.629	inactive: 37.6
CCOC(=O)C1(Cc2cccc(Cl)c2)CCCN(C(=O)c2cc(CC)on2)C1 (stereo unspecified)	0.02	inactive: 81.6

— the supplement of paper PMC12889115
